# From the supplement of paper PMC8728848
# Some of the results follow.
# B1: F17dG (Escherichia coli), Q47199 (protein)
# chain: MTNFYKVFLAVFILVCCNISQAAVSFIGSTENDVGPSPGSYSRTHAMDNLPFVYNTGNNIGYQNANVWRISKGFCVGLDGKVDLPVVGSLDGQSIYGLTEEVGLLIWMGDTNYSRGTAMSGNSWENVFSGWCVGANTASTQGLSVRVTPVILKRNSSARYSVQKTSIGSIRMRPYNGSSAGSVQTTVNFSLNPFTLNDTVTSCRLLTPSAVNVSLAAISAGQLPSSGDEVVAGTTSLKLQCDAGVTVWATLTDATTPSNRSDILTLTGASTATGVGLRIYKNTDSTPLKFGPDSPVKGNENQWQLSTGTETSPSVRLYVKYVNTGEGINPGTVNGISTFTFSYQ
# Columns and labels:
# Test in all cases: glycan array binding signal (z-score within array); higher = stronger binding
# Conditions in all cases: glycan notation: IUPAC condensed, linker removed
# [1] = molecular target: Neu5Ac(a2-3)Gal(b1-3)GalNAc(b1-3)Gal(b1-4)GlcNAc
# Method in brief: (§1)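 From the Consortium for Functional Glycomics database, 3228 arrays were curated, keeping only those whose protein sequence was available. Binding is given as a within-array Z-score averaged across arrays sharing a protein sequence and across linkers. Negative Z-scores can be read as non-binding.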
# [2] = molecular target: Neu5Ac(a2-3)Gal(b1-3)GalNAc(b1-4)[Neu5Ac(a2-3)]Gal(b1-4)Glc
# Method in brief: as §1
# [3] = molecular target: Neu5Ac(a2-3)Gal(b1-3)GalNAc6S
# Method in brief: as §1
# [4] = molecular target: Neu5Ac(a2-3)Gal(b1-3)GlcNAc
# Method in brief: as §1
# [5] = molecular target: Neu5Ac(a2-3)Gal(b1-3)GlcNAc6S
# Method in brief: as §1
# [6] = molecular target: Neu5Ac(a2-3)Gal(b1-3)[Fuc(a1-4)]GlcNAc
# Method in brief: as §1
# [7] = molecular target: Neu5Ac(a2-3)Gal(b1-3)[Fuc(a1-4)]GlcNAc(b1-3)Gal(b1-4)[Fuc(a1-3)]GlcNAc
# Method in brief: as §1
# [8] = molecular target: Neu5Ac(a2-3)Gal(b1-3)[Neu5Ac(a2-3)Gal(b1-4)]GlcNAc
# Method in brief: as §1
# [9] = molecular target: Neu5Ac(a2-3)Gal(b1-3)[Neu5Ac(a2-6)]GalNAc
# Method in brief: as §1
# [10] = molecular target: Neu5Ac(a2-3)Gal(b1-4)Glc
# Method in brief: as §1
# [11] = molecular target: Neu5Ac(a2-3)Gal(b1-4)GlcNAc
# Method in brief: as §1
# [12] = molecular target: Neu5Ac(a2-3)Gal(b1-4)GlcNAc(b1-2)Man(a1-3)[Neu5Ac(a2-3)Gal(b1-4)GlcNAc(b1-2)Man(a1-6)]Man(b1-4)GlcNAc(b1-4)GlcNAc
# Method in brief: as §1
# [13] = molecular target: Neu5Ac(a2-3)Gal(b1-4)GlcNAc(b1-3)Gal(b1-4)GlcNAc
# Method in brief: as §1
# [14] = molecular target: Neu5Ac(a2-3)Gal(b1-4)GlcNAc(b1-3)Gal(b1-4)GlcNAc(b1-3)Gal(b1-4)GlcNAc
# Method in brief: as §1
# [15] = molecular target: Neu5Ac(a2-3)Gal(b1-4)GlcNAc(b1-3)Gal(b1-4)[Fuc(a1-3)]GlcNAc
# Method in brief: as §1
# [16] = molecular target: Neu5Ac(a2-3)Gal(b1-4)GlcNAc6S
# Method in brief: as §1
# [17] = molecular target: Neu5Ac(a2-3)Gal(b1-4)[Fuc(a1-3)]GlcNAc
# Method in brief: as §1
# [18] = molecular target: Neu5Ac(a2-3)Gal(b1-4)[Fuc(a1-3)]GlcNAc(b1-3)Gal
# Method in brief: as §1
# [19] = molecular target: Neu5Ac(a2-3)Gal(b1-4)[Fuc(a1-3)]GlcNAc(b1-3)Gal(b1-4)GlcNAc
# Method in brief: as §1
# [20] = molecular target: Neu5Ac(a2-3)Gal(b1-4)[Fuc(a1-3)]GlcNAc(b1-3)Gal(b1-4)[Fuc(a1-3)]GlcNAc(b1-3)Gal(b1-4)[Fuc(a1-3)]GlcNAc
# Method in brief: as §1
# [21] = molecular target: Neu5Ac(a2-3)Gal(b1-4)[Fuc(a1-3)]GlcNAc6S
# Method in brief: as §1
# [22] = molecular target: Neu5Ac(a2-3)Gal6S(b1-4)GlcNAc
# Method in brief: as §1
# [23] = molecular target: Neu5Ac(a2-3)Gal6S(b1-4)[Fuc(a1-3)]GlcNAc
# Method in brief: as §1
# [24] = molecular target: Neu5Ac(a2-3)GalNAc
# Method in brief: as §1
# [25] = molecular target: Neu5Ac(a2-3)GalNAc(b1-4)GlcNAc
# Method in brief: as §1
# [26] = molecular target: Neu5Ac(a2-3)[GalNAc(b1-4)]Gal(b1-4)Glc
# Method in brief: as §1
# [27] = molecular target: Neu5Ac(a2-3)[GalNAc(b1-4)]Gal(b1-4)GlcNAc
# Method in brief: as §1
# [28] = molecular target: Neu5Ac(a2-3)[Neu5Ac(a2-6)]GalNAc
# Method in brief: as §1
# [29] = molecular target: Neu5Ac(a2-6)Gal
# Method in brief: as §1
# [30] = molecular target: Neu5Ac(a2-6)Gal(b1-4)Glc
# Method in brief: as §1
# [31] = molecular target: Neu5Ac(a2-6)Gal(b1-4)GlcNAc
# Method in brief: as §1
# [32] = molecular target: Neu5Ac(a2-6)Gal(b1-4)GlcNAc(b1-3)Gal(b1-4)GlcNAc
# Method in brief: as §1
# [33] = molecular target: Neu5Ac(a2-6)Gal(b1-4)GlcNAc(b1-3)Gal(b1-4)[Fuc(a1-3)]GlcNAc(b1-3)Gal(b1-4)[Fuc(a1-3)]GlcNAc
# Method in brief: as §1
# [34] = molecular target: Neu5Ac(a2-6)Gal(b1-4)GlcNAc6S
# Method in brief: as §1
# [35] = molecular target: Neu5Ac(a2-6)GalNAc
# Method in brief: as §1
# [36] = molecular target: Neu5Ac(a2-6)GalNAc(b1-4)GlcNAc
# Method in brief: as §1
# [37] = molecular target: Neu5Ac(a2-8)Neu5Ac
# Method in brief: as §1
# [38] = molecular target: Neu5Ac(a2-8)Neu5Ac(a2-3)Gal(b1-4)Glc
# Method in brief: as §1
# [39] = molecular target: Neu5Ac(a2-8)Neu5Ac(a2-3)[GalNAc(b1-4)]Gal(b1-4)Glc
# Method in brief: as §1
# [40] = molecular target: Neu5Ac(a2-8)Neu5Ac(a2-8)Neu5Ac
# Method in brief: as §1
# [41] = molecular target: Neu5Ac(a2-8)Neu5Ac(a2-8)Neu5Ac(a2-3)Gal(b1-4)Glc
# Method in brief: as §1
# [42] = molecular target: Neu5Ac(a2-8)Neu5Ac(a2-8)Neu5Ac(a2-3)[GalNAc(b1-4)]Gal(b1-4)Glc
# Method in brief: as §1
# [43] = molecular target: Neu5Ac(a2-8)Neu5Ac(a2-8)Neu5Ac(a2-8)Neu5Ac(a2-3)[GalNAc(b1-4)]Gal(b1-4)Glc
# Method in brief: as §1
# [44] = molecular target: Neu5Ac(b1-6)GalNAc
# Method in brief: as §1
# [45] = molecular target: Neu5Ac(b2-6)Gal(b1-4)GlcNAc
# Method in brief: as §1
# [46] = molecular target: Neu5Ac9Ac(a2-6)Gal(b1-4)GlcNAc
# Method in brief: as §1
# [47] = molecular target: Neu5Gc(a2-3)Gal(b1-3)GlcNAc
# Method in brief: as §1
# [48] = molecular target: Neu5Gc(a2-3)Gal(b1-3)[Fuc(a1-4)]GlcNAc
# Method in brief: as §1
# [49] = molecular target: Neu5Gc(a2-3)Gal(b1-4)Glc
# Method in brief: as §1
# [50] = molecular target: Neu5Gc(a2-3)Gal(b1-4)GlcNAc
# Method in brief: as §1
# [51] = molecular target: Neu5Gc(a2-3)Gal(b1-4)[Fuc(a1-3)]GlcNAc
# Method in brief: as §1
# [52] = molecular target: Neu5Gc(a2-6)Gal(b1-4)GlcNAc
# Method in brief: as §1
# [53] = molecular target: Neu5Gc(a2-6)GalNAc
# Method in brief: as §1
binder,measurement,setting,value
B1,glycan array binding signal (z-score),[1],-0.204
same,glycan array binding signal (z-score),[2],-0.4
same,glycan array binding signal (z-score),[3],0.469
same,glycan array binding signal (z-score),[4],-0.345
same,glycan array binding signal (z-score),[5],-0.318
same,glycan array binding signal (z-score),[6],-0.383
same,glycan array binding signal (z-score),[7],-0.005
same,glycan array binding signal (z-score),[8],-0.399
same,glycan array binding signal (z-score),[9],-0.361
same,glycan array binding signal (z-score),[10],-0.156
same,glycan array binding signal (z-score),[11],-0.354
same,glycan array binding signal (z-score),[12],-0.14
same,glycan array binding signal (z-score),[13],-0.104
same,glycan array binding signal (z-score),[14],-0.3
same,glycan array binding signal (z-score),[15],-0.397
same,glycan array binding signal (z-score),[16],-0.339
same,glycan array binding signal (z-score),[17],-0.21
same,glycan array binding signal (z-score),[18],-0.343
same,glycan array binding signal (z-score),[19],-0.328
same,glycan array binding signal (z-score),[20],-0.342
same,glycan array binding signal (z-score),[21],0.279
same,glycan array binding signal (z-score),[22],-0.183
same,glycan array binding signal (z-score),[23],-0.347
same,glycan array binding signal (z-score),[24],-0.327
same,glycan array binding signal (z-score),[25],-0.004
same,glycan array binding signal (z-score),[26],-0.213
same,glycan array binding signal (z-score),[27],-0.346
same,glycan array binding signal (z-score),[28],0.065
same,glycan array binding signal (z-score),[29],-0.241
same,glycan array binding signal (z-score),[30],-0.214
same,glycan array binding signal (z-score),[31],-0.372
same,glycan array binding signal (z-score),[32],-0.357
same,glycan array binding signal (z-score),[33],-0.185
same,glycan array binding signal (z-score),[34],-0.077
same,glycan array binding signal (z-score),[35],-0.348
same,glycan array binding signal (z-score),[36],-0.371
same,glycan array binding signal (z-score),[37],-0.397
same,glycan array binding signal (z-score),[38],-0.05
same,glycan array binding signal (z-score),[39],-0.188
same,glycan array binding signal (z-score),[40],-0.322
same,glycan array binding signal (z-score),[41],-0.315
same,glycan array binding signal (z-score),[42],-0.196
same,glycan array binding signal (z-score),[43],-0.374
same,glycan array binding signal (z-score),[44],-0.363
same,glycan array binding signal (z-score),[45],-0.161
same,glycan array binding signal (z-score),[46],-0.234
same,glycan array binding signal (z-score),[47],0.454
same,glycan array binding signal (z-score),[48],-0.319
same,glycan array binding signal (z-score),[49],-0.327
same,glycan array binding signal (z-score),[50],0.103
same,glycan array binding signal (z-score),[51],-0.355
same,glycan array binding signal (z-score),[52],-0.339
same,glycan array binding signal (z-score),[53],-0.341
